# Data reported in PubChem BioAssay AID651820 (National Center for Advancing Translational Sciences (NCATS), 2012).
# Where “and” joins values, the source holds several entries; their conditions need not be identical. Identical values can stand only once. Hit rate of the full screen: of about 340,000 compounds, about 12,000 (3.5%) were called active. This list was built around the results that the source calls inconclusive (neither active nor inactive); the mix of calls is not that of the screen. The call rests on the fitted dose curve; in most records, active means well fitted inhibition curve with a large enough effect; inconclusive means small, poorly fitted or top-dose-only effect, or another doubt; inactive means no such curve, though single readings can be large or run the other way. A potency beside an inconclusive call is a rough fit, not a confirmed value.
# Assay: qHTS Assay for Inhibitors of Hepatitis C Virus (HCV)
# Settings: Huh7.5.1 HCVcc-Cre (HCVcc is cell-culture hepatitis C virus) infection, luciferase reporter, 44 h; activity change, negative = inhibition: at 41.8 µM (top of the series) unless noted
# How it was run: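 Cells seeded at 1,000/well and cultured 4 h, then compounds added followed by HCVcc-Cre virus (~0.5 moi). After 44 h further culture, luciferase substrate was added, plates held 15 min at room temperature, and luminescence read for 15 sec.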
# On the % scale 0 is the no-effect control and ±100 the full control effect; potency means the concentration at half of the fitted maximal effect; tags describe the fitted curve by direction and shape.
Compound,"activity change, negative = inhibition",Potency
Cc1cc(C)c(C#N)c(SCC(=O)C(C)(C)C)n1,inactive: 13.3%,–
COc1cccc(NC(=O)CSc2nc3ccccc3nc2N2CCOCC2)c1,–,"inconclusive: 14.1 µM [inhibitor, single point]"
COc1cccc(/C=N/NC(=O)CSc2ccccc2C)c1O,–,"inconclusive: 11.2 µM [inhibitor, single point]"
O=C(Cn1cnc2scc(-c3ccc(F)cc3)c2c1=O)NCC(c1ccco1)N1CCCC1 (centres undefined),–,"inconclusive: 10 µM [inhibitor, partial curve]"
O=C(CSc1ncn[nH]1)Nc1nc(-c2cccc([N+](=O)[O-])c2)cs1,–,"inconclusive: 11.2 µM [inhibitor, single point]"
CCc1nc(SCC(=O)Nc2ccc(N(C)C)cc2)c2ccccc2n1,–,"inconclusive: 31.6 µM [inhibitor, single point]"
CCOC(=O)N1CCN(C(=O)Nc2ccc3nc(-c4ccccn4)c(-c4ccccn4)nc3c2)CC1,–,inactive
Cc1cc2nc(-c3ccc(SCC(=O)N4CCc5ccccc54)nc3)[nH]c2cc1C,–,active: 5.01 µM
CC(=O)c1c(C)[nH]c(C(=O)OCC(=O)NCCC(C)C)c1C,–,active: 11.2 µM
CCSc1nc(N)nc(-c2cccs2)c1C#N,–,"inconclusive: 7.94 µM [inhibitor, partial curve]"
CC(=O)Nc1cccc(C(=O)/C=C/c2ccc(/C=C/C(=O)c3cccc(NC(C)=O)c3)cc2)c1,–,"inconclusive: 31.6 µM [inhibitor, single point]"
Cc1ccc2c(=O)n3c(nc2c1)C(Cc1ccc(O)cc1)NC(=O)c1ccc(Cl)cc1-3 (centres undefined),–,"inconclusive: 1.58 µM [inhibitor, full curve]"
C#CCOCCOCCOCCNc1nc(N2CCN(C(=O)CCCCCCCCCCNC(=O)[C@@H](CCSC)n3cc(CCO)nn3)CC2)nc(N2CCN(C(=O)CCCCCCCCCCNC(=O)[C@H]([C@@H](C)CC)n3cc(CCCCCN)nn3)CC2)n1,–,"inconclusive: 31.6 µM [inhibitor, single point]"
Cc1c(C(=O)NCCSCc2cccc(C(F)(F)F)c2)cnn1-c1ccc(F)cc1,–,"inconclusive: 22.4 µM [inhibitor, single point]"
CC(Sc1nc(-c2ccc(F)cc2)cs1)C(=O)N1c2ccccc2CC1C (centres undefined),–,active: 22.4 µM
CCN(CC)c1ccc(N=Cc2c(C)[nH]c3ccccc23)cc1,–,"inconclusive: 7.94 µM [inhibitor, partial curve]"
Cc1cc(C)n(C(N)=NC(=O)c2ccc([N+](=O)[O-])cc2)n1,inactive: 4.23%,–
CC(NC(=O)c1ccccc1NC(=O)c1ccncc1)c1ccccc1 (centres undefined),inactive: -3.46%,–
Cc1ccc(C(=O)Nc2ccc3c(c2)OCO3)cc1NC(=O)c1ccco1,–,"inconclusive: 31.6 µM [inhibitor, single point]"
Cc1ccccc1NC1=NCC(c2ccc([N+](=O)[O-])cc2)S1 (centres undefined),inactive: -29.5%,–
O=C(CSc1nc2ccccc2n1CC(=O)NCc1ccccc1)NCc1ccco1,–,"inconclusive: 3.55 µM [inhibitor, partial curve]"
CCn1c(=O)n(CC)c2cc(N3CCCC3)c(NC(=O)c3ccc(C)c([N+](=O)[O-])c3)cc21,–,active: 7.94 µM

Compound,"activity change, negative = inhibition",Potency
COc1cc(C(=O)Nc2ccc3c(c2)OCO3)ccc1OCc1c(C)noc1C,–,"inconclusive: 31.6 µM [inhibitor, single point]"
COc1ccc(S(=O)(=O)Nc2ccc3c(c2)C(=O)N([C@H](C)CO)C[C@H](C)[C@H](CN(C)Cc2ccc(C(=O)O)cc2)O3)cc1,inactive: -1.72%,–
CC(C)CCC(CCN1CCCC1)c1ccc2c(c1)OCO2 (centres undefined),–,"inconclusive: 35.5 µM [inhibitor, single point]"
C[C@]12c3[nH]c4ccc(Cl)cc4c3CCN1C(=O)[C@@H](CC(=O)NCc1ccco1)C[C@@H]2C(=O)N1CCCCC1,–,"inconclusive: 10 µM [inhibitor, partial curve]"
CCN(CCCNc1ncnc2nc[nH]c12)c1cccc(C)c1,–,"inconclusive: 10 µM [inhibitor, partial curve]"
COc1ccc(C(=O)Nc2ccc(OCC(=O)N3CCOCC3)cc2)c(OC)c1OC,inactive: 15.8%,–
COc1ccc(-c2cc(C(=O)NCCc3ccccc3)no2)cc1OC,–,"inconclusive: 10 µM [inhibitor, partial curve, poor fit]"
C=CCOc1ccc(/C=N/NC(=O)c2cc3c(OC)cc(OC)cc3[nH]2)cc1,–,"inconclusive: 7.94 µM [inhibitor, partial curve]"
CCCCCn1c(SCCC(C)C)nc2c1c(=O)[nH]c(=O)n2C,–,"inconclusive: 22.4 µM [inhibitor, single point]"
CCOC(=O)/C(C#N)=N/Nc1ccccc1OC,–,"inconclusive: 10 µM [inhibitor, single point]"
Cc1[nH]n(-c2ccccc2)c(=O)c1C=NC1CCCCC1,inactive: 0.43%,–
Cc1oncc1-c1csc(-c2ccccc2)n1,–,"inconclusive: 14.1 µM [inhibitor, single point]"
Cc1cc(NCCCN)nc(-c2ccccc2O)n1,–,active: 10 µM
CC1CCc2nc(NC(=O)CSc3nc4ccccc4o3)sc2C1 (centres undefined),–,active: 11.2 µM
COc1cc(NC(=O)COc2ccc(-n3ccnc3)cc2)cc(OC)c1,–,"inconclusive: 31.6 µM [inhibitor, partial curve, poor fit]"
O=C(c1cc(-c2ccc(Br)cc2)on1)N1CCCC1,inactive: 6.23%,–
O=C(Nc1ccc(C(=O)N2CCOCC2)cc1)c1cc(-c2cccnc2)nc2ccc(Cl)cc12,–,active: 7.94 µM
CCOc1ccc(NC(=O)c2nn(C)c(C(=O)Nc3ccc(OCC)cc3)c2[N+](=O)[O-])cc1,–,"inconclusive: 3.16 µM [inhibitor, partial curve]"
Cc1nc2ccccc2c(=O)n1-c1ccc(-c2ccccc2)cc1,–,"inconclusive: 31.6 µM [inhibitor, single point]"
CCOc1ccccc1NC(=O)c1ccc(F)c(S(=O)(=O)N2CCC3(CC2)OCCO3)c1,–,"inconclusive: 5.01 µM [inhibitor, partial curve]"
Cc1cc(N2CCCC2)ccc1/C=C1\NC(=S)N(C)C1=O,–,"inconclusive: 7.08 µM [inhibitor, partial curve, poor fit]"
CC(=O)Nc1ccc(NC2=C/C(=N/S(=O)(=O)c3cccs3)c3ccccc3C2=O)cc1,–,"inconclusive: 31.6 µM [inhibitor, single point]"

Compound,"activity change, negative = inhibition",Potency
C#CCN1C=CC(=O)[C@@H](O)[C@H]1c1ccccc1Br,–,active: 5.62 µM
CN(C)c1ccc(C=c2c3cc(O)ccc3n3c2cc(-c2ccccc2)[n+]3C)cc1,–,"inconclusive: 20 µM [inhibitor, single point]"
Cc1cccc2cc(CN(CCCN3CCOCC3)Cc3nnnn3C(C)(C)C)c(=O)[nH]c12,inactive: -2.03%,–
COc1ccc(C2C3=C(CCCC3=O)Nc3ccc4ncccc4c32)cc1OC (centres undefined),–,"inconclusive: 0.316 µM [inhibitor, full curve, poor fit]"
CCOc1cc(/C=N/NC(=S)Nc2ccccc2C(F)(F)F)ccc1OCC(=O)N1CCOCC1,–,"inconclusive: 22.4 µM [inhibitor, single point]"
Cc1cccn2c(=O)c3cc(C(=O)N4CCCC(C)C4)sc3nc12 (centres undefined),–,"inconclusive: 3.16 µM [inhibitor, single point]"
Cc1c(C(=O)Nc2ccc(S(=O)(=O)NCC3CCCO3)cc2)cccc1[N+](=O)[O-] (centres undefined),–,"inconclusive: 22.4 µM [inhibitor, single point]"
COc1ccc(C(=O)Nc2cccc(-c3csc(C)n3)c2)cc1S(=O)(=O)N1CCCC1,–,"inconclusive: 7.94 µM [inhibitor, partial curve]"
COC(=O)c1ccc(NC(=O)C(=O)NCC2CCCO2)cc1 (centres undefined),inactive: 3.89%,–
COc1ccc(NC(=O)C(F)(OC)C(F)(F)F)c(OC)c1 (centres undefined),–,"inconclusive: 2.82 µM [inhibitor, single point]"
CN(c1ccccc1)S(=O)(=O)c1cc(C(=O)NCCCn2ccnc2)ccc1Cl,–,"inconclusive: 31.6 µM [inhibitor, single point]"
O=C(CN1C(=O)c2cccc3cccc1c23)N1CCN(Cc2ccc3c(c2)OCO3)CC1,–,"inconclusive: 12.6 µM [inhibitor, partial curve] and inconclusive: 31.6 µM [inhibitor, single point]"
O=C(Nc1ccn(-c2ccccc2)n1)c1ccc(S(=O)(=O)N2CCCCCC2)cc1,–,"inconclusive: 22.4 µM [inhibitor, single point]"
Cn1c(SCC(=O)Nc2ccc(F)cc2)nc2c(c1=O)SCC2,–,"inconclusive: 22.4 µM [inhibitor, single point]"
COc1ccc2nc(N(CCN(C)C)C(=O)/C=C/c3cccs3)sc2c1,–,"inconclusive: 11.2 µM [inhibitor, partial curve]"
CN(C)c1ccc(N=Nc2ccccc2C(=O)OCC(=O)N(C)c2ccccc2)cc1,–,"inconclusive: 7.08 µM [inhibitor, partial curve]"
COc1ccc2[nH]c3c(c2c1)CCN1C(=O)C(CC(=O)NCC24CC5CC(CC(C5)C2)C4)C[C@H](C(=O)N2CCOCC2)[C@@]31C (some centres undefined),–,"inconclusive: 31.6 µM [inhibitor, partial curve]"
COc1ccc(S(=O)(=O)NCc2cn3c(C)csc3n2)cc1F,–,"inconclusive: 0.501 µM [inhibitor, full curve, poor fit]"
Cc1ccccc1C(=O)Nc1ccc(C(=O)N/N=C/c2ccc(O)cc2)cc1,–,"inconclusive: 5.62 µM [inhibitor, single point]"
Cc1ccc(Cn2nnc3c(=O)[nH]c(C4CCN(S(=O)(=O)Cc5ccccc5)CC4)nc32)cc1,–,"inconclusive: 5.62 µM [inhibitor, single point]"
